The values that follow come from the RNAGym collection of RNA variant scans (doi:10.1073/pnas.2313332121).

Variants at the background level are over-represented here.

Sequences and labels used below:
B1: TPR 5TU (parent)
chain: GGAUCUUCUCGAUCUAACAAAAAAGACAAAUCUGCCACAAAGCUUGAGAGCAUCUUCGGAUGCAGAGGCGGCAGCCUUCGGUGGCGCGAUAGCGCCAACGUUCUCAACUAUGACACGCAAAACGCGUGCUCCGUUGAAUGGAGUUUAUCAUG

The variants in this data set derive from B1. Briefly: polymerase ribozyme fitness, log enrichment relative to wild type (log ratio); higher = more active; in vitro selection for triplet polymerase activity. Summed up:
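To select mutant libraries of each subunit of a heterodimeric triplet polymerase ribozyme, built by PCR and transcribed, each was annealed with a biotinylated primer, partner subunit and triplets, then incubated frozen at −7 °C. Extended constructs were gel-excised, captured on streptavidin beads and amplified by RT-PCR, in one round carried out in triplicate. Illumina sequencing of input and output libraries kept genotypes with ≥10 input reads and ≥1 read per output. Fitness is the base-2 logarithm of genotype enrichment relative to wild-type enrichment, from inverse-variance-weighted replicate averages.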
Consider GGAUCUUCUCGAUCUAACAAAAAAGACAAAUCUGCCACAACGCUUGAGAGCAUCUUCGGAUGCAGGGGCGGCAGCCUUCGGUGGCGGGAUAGCGCCAACGUUCUCAACUAUGACACGCAAAACGCGUGCUCCGUUGAAUGGAGGUUAUCAUG, for which the “polymerase ribozyme fitness (log ratio)” value was at most -4.2. The value for GGAUCUUCUCGAUCUAACAAAAAAGACAAAUCUGCCACAUAGCUUGAGAGCAUCUUCGGAUGCAGAGGCGGCAGCCUUCGGUGGCGCGAUAGGGCCAACGUUCUCAACUAUGACAUGCAAAACGCGUGCUCCGUUGAAAGGAGUAUAUCAUG was at most -4.2. Take GGAUCUUCUCGAUCUAACAAAAAAGACAAAUCUGCCACAACGCUUGAGCGCAUCUUCGGAUGCAGAGGCGGCAGCCUUCGGUGGCGCGAUAGCGCCAACGUUCUCAACUAUGACACGCAAAACGCGUGCUCCGUUGAAUGGAGAUUAUCAUG: the “polymerase ribozyme fitness (log ratio)” value is at most -4.2. The value for GGAUCUUCUCGAUCUAACAAAAAAGACAAAUCUGCCACAUAGCUUGAGAGCAUCUUCGGAUGCAGAGGCGGCAGCCUUCGCUGGUGCGAUCGCGCCAACGUUCUCAACUAUGACACGCAAAACGCAUGCUCCGUUGAAUGGAGUUUAACAUG was at most -4.2; that for GGAUCUUCUCGAUCUAACAAAAAAGACAAAUCUGCCACAUAGCUUGAGACCAUCUUCGGAUGCAGAGGCGGCAGCCUUCGGUGGGGCGAUAGCGCCAAUGUUCUCAACUAUGACACGCAAAACGCGUGCUCCGUUGUAUGGAGUUUAGCAUG was at most -4.2; that for GGAUCUUCUCGAUCUAACAAAAAAGACAAAUCUGCCACAUAGCUUGAGAGCAUCUUCGGAUGCAGAGGCGGCAGCCUUCGGUGGCGCGAUAGCGCCAACGUUCUCAACUAUGACACUCAAAACGCGUGCUCCGUUGAAUGGAGUUUAUGAUG was at most -4.2. Turning to GGAUCUUCUCGAUCUAACAAAAAAGACAAAUCUGCCACAACGCUUGCGAGCAUCUACGGAUGCAGAGGCGGCAGCCUUCGGUGGUGCGAUAGCGCCAACGUUCUCAACUAUGACACGCAAAACGCGUGCUCCGUUGAAUGGAGUUUAUCAUG, the “polymerase ribozyme fitness (log ratio)” value is -1.41. Consider GGAUCUUCUCGAUCUAACAAAAAAGACAAAUCUGCCACAACGCUUGAGAGCAUCUUCGGAUGCAGAGGCGGCAGCCUUCGGUGGCGCGAUAGCGCCAACGUUCUCAACUAUGUAACGCAAAACGCGUGCUCCGUUGAAUGGAGUUUAUCAUG, for which the “polymerase ribozyme fitness (log ratio)” value was at most -4.2. For GGAUCUUCUCGAUCUAACAAAAAAGACAAAUCUGCCACAUAGCUUGAGAUCAUCUUCGGAUGCAGAGGCGGCAGCCUUCAGUGGCGCGAUAGCGCCAACGUUCUCAACUAUGACACGCAAAACGCAUGCUCGGUUGAAUGGAGUUUAUCAUG the value was at most -4.2; for GGAUCUUCUCGAUCUAACAAAAAAGACAAAUCUGCCACAUAGCUAGAGAGCAUCUUCGAAUGCAGAGGCGGCAGCCUUCGGUGGCACGAUAGCGCCAACGUUCUCAACUAUGACACGUAAAACGCGUGCUCCGUUGAAUGGAGUUUAUCAUG, at most -4.2. Regarding GGAUCUUCUCGAUCUAACAAAAAAGACAAAUCUGCCACAUAGCUUGAGAGCAUCUUCGGAUACAGAGGCGGCAGCCUUCGGUGGCGCGAUAGCGUCAACGUUCCCAACUAUGACACGCAAAACGCGUGCUCCCUUGAAUGGAGUUUAUCAUG, the “polymerase ribozyme fitness (log ratio)” value is -3.3. In the case of GGAUCUUCUCGAUCUAACAAAAAAGACAAAUCUGCCACAUAGCUUGAGAGCAUCUUCGGAUGCAUAGGCGGCAGUCUUCGGUGGCGCGAUAGCGCCCACGUUCUCAACUAUGACACGCUAAACGCGUGCUCCGUUGAAUGGAGUUUAUCAUG, the “polymerase ribozyme fitness (log ratio)” value is at most -4.2. The value for GGAUCUUCUCGAUCUAACAAAAAAGACAAAUCUGCCACAUAGCUUGAGAGCAUCAUCGGAUGCAGAGGCGGCAGCCUUCGGUGGCACGAUAGCGCCAACGUUCUCAACUAUGACACGCAAAACGCGUGCUCCUUUGAAUGGAGUUUAUCAUG was at most -4.2; that for GGAUCUUCUCGAUCUAACAAAAAAGACAAAUCUGCCACAACGCUUGAGAGCAUCUUCGGUUGCAGAUGCGGCAGCCUUCGGUGGCGCGAUAGCGCCAACGUUCUCAACUAUGACACGCAAAACGCGUGCUCCGUGGAAUAGAGUUUAUCAUG was at most -4.2; that for GGAUCUUCUCGAUCUAACAAAAAAGACAAAUCUGCCACAACGCUUGAGAGCAUCUUCGGAUGCAGAGGCGGCAGCCUUCGGUGGCGCGAUCGCGCCAACGUUCUCUACUAUGACACGCAAAACGCGUGCUCCGUUGAAUGGAGUUUACCAUG was at most -4.2.

Turning to GGAUCUUCUCGAUCUAACAAAAAAGACAAAUCUGCCACAUAGCUAGAGAGCAUCUUCGGAUGCAGAGGUGGCAGCCUUCGGUUGCGCGAUAGCGCCAACGUUCUCAACUAUGACACGCAAAACGCGUGCUCCGUUGAAUGAAGAUUAUCAUG, the “polymerase ribozyme fitness (log ratio)” value was at most -4.2. With GGAUCUUCUCGAUCUAACAAAAAAGACAAAUCUGCCACAUAGCUUGAGAGCAUCUUCGGAUGCAGAGCCGGCAGCCUUCGGUGGCGCGAUACCGCCAACGUUCUCAACUAUGACACGCAAAACGCGUGCUCCGUCGAAUGGAGUUUAUCAUG, the “polymerase ribozyme fitness (log ratio)” value was at most -4.2. The value for GGAUCUUCUCGAUCUAACAAAAAAGACAAAUCUGCCACAUAGCUUGAGAGCAGCUUCGGAUGCAGAGGAGGCAGCCUUCGGUGGCGCGAUAGCGCCAAGGUUCUCAAGUUUGACACGCAAAACGCGUGCUCCGUUGAAUGGAGUUUCUCAUG was at most -4.2; that for GGAUCUUCUCGAUCUAACAAAAAAGACAAAUCUGCCACAUAGCUUGAGAACAUCUUCGGAUGCAGAGGCGGCAGCCUUCGGUGGCGCGAUAGCGCCCACGUUCUCAACUAUCACACGCAAAAUGCGUGCUCCGUUGGAUGGAGUUUAUCAUG was at most -4.2.
